# Data as given in paper PMC9911399, “Two distinct binding modes provide the RNA-binding protein RbFox with extraordinary sequence specificity”.
# Residue numbers refer to the chain shown, from its start. The list shows a part of the results.
# T1: RBFOX1 RRM RbFoxmut (Fox-RRM*) (Homo sapiens, UniProt Q9NWB1 109-208, R118D;E147R;N151S;E152T)
# T1 sequence: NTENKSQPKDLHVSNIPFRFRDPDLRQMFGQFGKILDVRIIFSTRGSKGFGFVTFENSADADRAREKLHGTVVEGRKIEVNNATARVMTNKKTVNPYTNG
# B1: CUGGCCA (DNA:RNA)
# RNA: GGGAGACCGGAAUUCAGAUUGUCCCUGGCCAUUAAAUCCCGUCGUAGCCACCA
# DNA 1: CAATCTGAATTCCGGTCTCCC
# DNA 2: TGGTGGCTACGACGGGATT
# B2: UCGAGGC (DNA:RNA)
# RNA: B1 RNA with C25U, U26C, G28A, C29G, C30G, A31C
# DNA 1: CAATCTGAATTCCGGTCTCCC
# DNA 2: TGGTGGCTACGACGGGATT
# B3: CAGGUCA (DNA:RNA)
# RNA: B1 RNA with U26A, C29U
# DNA 1: CAATCTGAATTCCGGTCTCCC
# DNA 2: TGGTGGCTACGACGGGATT
# B4: CCCUGAG (DNA:RNA)
# RNA: B1 RNA with U26C, G27C, G28U, C29G, C30A, A31G
# DNA 1: CAATCTGAATTCCGGTCTCCC
# DNA 2: TGGTGGCTACGACGGGATT
# B5: AUAUAAC (DNA:RNA)
# RNA: B1 RNA with C25A, G27A, G28U, C29A, C30A, A31C
# DNA 1: CAATCTGAATTCCGGTCTCCC
# DNA 2: TGGTGGCTACGACGGGATT
# B6: GUUGACA (DNA:RNA)
# RNA: B1 RNA with C25G, G27U, C29A
# DNA 1: CAATCTGAATTCCGGTCTCCC
# DNA 2: TGGTGGCTACGACGGGATT
# B7: GGGAGGA (DNA:RNA)
# RNA: B1 RNA with C25G, U26G, G28A, C29G, C30G
# DNA 1: CAATCTGAATTCCGGTCTCCC
# DNA 2: TGGTGGCTACGACGGGATT
# B8: UUGACUU (DNA:RNA)
# RNA: B1 RNA with C25U, G28A, C30U, A31U
# DNA 1: CAATCTGAATTCCGGTCTCCC
# DNA 2: TGGTGGCTACGACGGGATT
# B9: UGGCACU (DNA:RNA)
# RNA: B1 RNA with C25U, U26G, G28C, C29A, A31U
# DNA 1: CAATCTGAATTCCGGTCTCCC
# DNA 2: TGGTGGCTACGACGGGATT
# B10: UCCGAUG (DNA:RNA)
# RNA: B1 RNA with C25U, U26C, G27C, C29A, C30U, A31G
# DNA 1: CAATCTGAATTCCGGTCTCCC
# DNA 2: TGGTGGCTACGACGGGATT
# B11: GGCAGAU (DNA:RNA)
# RNA: GGGAGACCGGAAUUCAGAUUGUCCGGCAGAUUUAAAUCCCGUCGUAGCCACCA
# DNA 1: CAATCTGAATTCCGGTCTCCC
# DNA 2: TGGTGGCTACGACGGGATT
# B12: GCAAUCA (DNA:RNA)
# RNA: B1 RNA with C25G, U26C, G27A, G28A, C29U
# DNA 1: CAATCTGAATTCCGGTCTCCC
# DNA 2: TGGTGGCTACGACGGGATT
# B13: GUUGUAC (DNA:RNA)
# RNA: B1 RNA with C25G, G27U, C29U, C30A, A31C
# DNA 1: CAATCTGAATTCCGGTCTCCC
# DNA 2: TGGTGGCTACGACGGGATT
# B14: CGCGUUC (DNA:RNA)
# RNA: B1 RNA with U26G, G27C, C29U, C30U, A31C
# DNA 1: CAATCTGAATTCCGGTCTCCC
# DNA 2: TGGTGGCTACGACGGGATT
# B15: GGCGUCC (DNA:RNA)
# RNA: B11 RNA with A28G, G29U, A30C, U31C
# DNA 1: CAATCTGAATTCCGGTCTCCC
# DNA 2: TGGTGGCTACGACGGGATT
# B16: UGGACGG (DNA:RNA)
# RNA: B1 RNA with C25U, U26G, G28A, C30G, A31G
# DNA 1: CAATCTGAATTCCGGTCTCCC
# DNA 2: TGGTGGCTACGACGGGATT
# B17: GGAGCGA (DNA:RNA)
# RNA: B1 RNA with C25G, U26G, G27A, C30G
# DNA 1: CAATCTGAATTCCGGTCTCCC
# DNA 2: TGGTGGCTACGACGGGATT
# B18: GAUGCGG (DNA:RNA)
# RNA: B1 RNA with C25G, U26A, G27U, C30G, A31G
# DNA 1: CAATCTGAATTCCGGTCTCCC
# DNA 2: TGGTGGCTACGACGGGATT
# B19: ACUAAGG (DNA:RNA)
# RNA: B11 RNA with G25A, G26C, C27U, G29A, A30G, U31G
# DNA 1: CAATCTGAATTCCGGTCTCCC
# DNA 2: TGGTGGCTACGACGGGATT
# B20: AACCUCU (DNA:RNA)
# RNA: B11 RNA with G25A, G26A, A28C, G29U, A30C
# DNA 1: CAATCTGAATTCCGGTCTCCC
# DNA 2: TGGTGGCTACGACGGGATT
# B21: CAAUUUC (DNA:RNA)
# RNA: B1 RNA with U26A, G27A, G28U, C29U, C30U, A31C
# DNA 1: CAATCTGAATTCCGGTCTCCC
# DNA 2: TGGTGGCTACGACGGGATT
# B22: UACUUGG (DNA:RNA)
# RNA: B11 RNA with G25U, G26A, A28U, G29U, A30G, U31G
# DNA 1: CAATCTGAATTCCGGTCTCCC
# DNA 2: TGGTGGCTACGACGGGATT
# B23: UAUUUCG (DNA:RNA)
# RNA: B1 RNA with C25U, U26A, G27U, G28U, C29U, A31G
# DNA 1: CAATCTGAATTCCGGTCTCCC
# DNA 2: TGGTGGCTACGACGGGATT
# B24: GAUCGCA (DNA:RNA)
# RNA: B1 RNA with C25G, U26A, G27U, G28C, C29G
# DNA 1: CAATCTGAATTCCGGTCTCCC
# DNA 2: TGGTGGCTACGACGGGATT
# B25: GAAGGCC (DNA:RNA)
# RNA: B1 RNA with C25G, U26A, G27A, C29G, A31C
# DNA 1: CAATCTGAATTCCGGTCTCCC
# DNA 2: TGGTGGCTACGACGGGATT
# B26: AUAUCAU (DNA:RNA)
# RNA: B1 RNA with C25A, G27A, G28U, C30A, A31U
# DNA 1: CAATCTGAATTCCGGTCTCCC
# DNA 2: TGGTGGCTACGACGGGATT
# B27: GCACCGA (DNA:RNA)
# RNA: B1 RNA with C25G, U26C, G27A, G28C, C30G
# DNA 1: CAATCTGAATTCCGGTCTCCC
# DNA 2: TGGTGGCTACGACGGGATT
# B28: ACCCCUG (DNA:RNA)
# RNA: B1 RNA with C25A, U26C, G27C, G28C, C30U, A31G
# DNA 1: CAATCTGAATTCCGGTCTCCC
# DNA 2: TGGTGGCTACGACGGGATT
# B29: ACUACGA (DNA:RNA)
# RNA: B1 RNA with C25A, U26C, G27U, G28A, C30G
# DNA 1: CAATCTGAATTCCGGTCTCCC
# DNA 2: TGGTGGCTACGACGGGATT
# B30: CGACUGG (DNA:RNA)
# RNA: B1 RNA with U26G, G27A, G28C, C29U, C30G, A31G
# DNA 1: CAATCTGAATTCCGGTCTCCC
# DNA 2: TGGTGGCTACGACGGGATT
# B31: UUCGACU (DNA:RNA)
# RNA: B1 RNA with C25U, G27C, C29A, A31U
# DNA 1: CAATCTGAATTCCGGTCTCCC
# DNA 2: TGGTGGCTACGACGGGATT
# Target: T1, RBFOX1 RRM RbFoxmut (Fox-RRM*)
# Assay: EMSA; HiTS-Eq, 1 nM pool, 10 min; buffer printed only for the single-RNA assays: 10 mM Tris pH 7.5, 150 mM NaCl, 3.4 mM EDTA, 0.001% NP-40, 30 C
# Conditions: tags: His6 N-terminal (pET28a); label: 5' 32P
# Procedure, shortened: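 Purified wild-type or mutant RbFox RRM at increasing concentrations was equilibrated with 1 nM of 5′-radiolabelled RNA carrying 7 randomized nucleotides for 10 min in 50 µL. Unbound RNA was separated by 8% native PAGE and sequenced. Relative association constants came from read-count changes of each RNA species compared with the control reaction, normalised to the cognate motif.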
row,Binder,binding signal
1,B1,0.107 KA relative to UGCAUGU
2,B2,0.104 KA relative to UGCAUGU
3,B3,0.0978 KA relative to UGCAUGU
4,B4,0.105 KA relative to UGCAUGU
5,B5,0.0943 KA relative to UGCAUGU
6,B6,0.0803 KA relative to UGCAUGU
7,B7,0.0669 KA relative to UGCAUGU
8,B8,0.0573 KA relative to UGCAUGU
9,B9,0.0729 KA relative to UGCAUGU
10,B10,0.0878 KA relative to UGCAUGU
11,B11,0.0897 KA relative to UGCAUGU
12,B12,0.0681 KA relative to UGCAUGU
13,B13,0.107 KA relative to UGCAUGU
14,B14,0.0965 KA relative to UGCAUGU
15,B15,0.108 KA relative to UGCAUGU
16,B16,0.128 KA relative to UGCAUGU

row,Binder,binding signal
1,B17,0.101 KA relative to UGCAUGU
2,B18,0.0601 KA relative to UGCAUGU
3,B19,0.0914 KA relative to UGCAUGU
4,B20,0.0521 KA relative to UGCAUGU
5,B21,0.0695 KA relative to UGCAUGU
6,B22,0.0893 KA relative to UGCAUGU
7,B23,0.115 KA relative to UGCAUGU
8,B24,0.131 KA relative to UGCAUGU
9,B25,0.0919 KA relative to UGCAUGU
10,B26,0.12 KA relative to UGCAUGU
11,B27,0.173 KA relative to UGCAUGU
12,B28,0.0845 KA relative to UGCAUGU
13,B29,0.0683 KA relative to UGCAUGU
14,B30,0.206 KA relative to UGCAUGU
15,B31,0.0754 KA relative to UGCAUGU
